Read counts are not given, so values of variants with three or more changes are uncertain.
B1: LINE1-mini (parent)
chain: GGCAGAGCUCAACACAGCGUGGCAAAGUGGCUGUGGCUAGACUGCC

Variants of: B1
Assay: self-cleavage, relative activity (ratio to wild type); higher = more cleavage; in vitro, sequencing; the parent is a self-cleaving ribozyme
Work on GGCAGAGCUCAACUCAGCGUGGCAAAGUUGCUGGGGCUAUAAUGCC [A14U G29U U34G G40U C42A] yielded a self-cleavage of 0.26. In the case of GGCAGAGCUCAACACAGUUUGGCAAAGUGGCCGUGGCUAGACUGCC [C18U G19U U32C], the self-cleavage is reported as 0.29. Variant CGCAUAGCUCAACACAGCAUGGCAAAGUGGCUGUGGCUAGACUGCC [G1C G5U G19A] has a self-cleavage of 0.01. GGCAGAACCCAACACAGCGUGGCAAAGUGGCUGUGGAAAGACUGCC [G7A U9C C37A U38A] showed a self-cleavage of 0.07. In the case of GGCAGAGCUCAACACAGCGUGGCAAAGUAGCUGCGGCUAGUCUGCC [G29A U34C A41U], the self-cleavage is reported as 0.1. With GGCAGUGCUCAACACAGCGUGGCAAAGUGGCAGUAGCUAGACUGCC [A6U U32A G35A] the self-cleavage was 0.01. GGCUAAGCUAAACACAGCGUCGCAAAGUGGCUGUGGUUAGACUGCC [A4U G5A C10A G21C C37U] gave a self-cleavage of 0.01. GGCAGAGCUAAACCCGGCGUGGCAAAGUGGCUGUGGCUAGACUGCC [C10A A14C A16G] gave a self-cleavage of 0.05. In the case of GGCACAGCUCAACACCGCGUAGCAAAGUGGCUGUGGCUAGACUGCC [G5C A16C G21A], the self-cleavage is reported as 0.02. With GGCAGAGCUCGACACAGCGUGGCAAAGUGGCUGUUGCUCGACUGCC [A11G G35U A39C] the self-cleavage was 0.02. GGCAGAGCUCAACACAGCGUGGCAAUGUCGCUGUGGCUAGACUGCA [A26U G29C C46A] gave a self-cleavage of 0.49. GGCAGAGCUCCACACAGCGGGGCAAAGUGGCGGUGGCUAGACUGCC [A11C U20G U32G] showed a self-cleavage of 0.02. Variant GGCAGGGCUCAACACAGCGUGGCAAAGUGCCUUUGGCUAGACUGCC [A6G G30C G33U] has a self-cleavage of 0. GGAAGAGCUCAACACAGCGUAGAAAAGUCGCUGUAGCUAGACUGCC [C3A G21A C23A G29C G35A] showed a self-cleavage of 0.31. With GGCAGACCUCAGCACAGCGUGGCAAAGGGGCUGUGGCUAGACUGCC [G7C A12G U28G] the self-cleavage was 0. AGCAGAGCUCACCACAGCGUGGCAAAGCAGCUGUGGGUAGCCUGCC [G1A A12C U28C G29A C37G A41C] showed a self-cleavage of 0.02. In the case of GGCAGAGCUCACGACAGCGUGCCAAAGUCGGUGUGGCUAGACUGCC [A12C C13G G22C G29C C31G], the self-cleavage is reported as 0.01. Work on GGCAGGGCUCAACACAGCGUGGCAACGUGGCUGUGGCUACACUGCC [A6G A26C G40C] yielded a self-cleavage of 0.1. With GCCAGACCUCAACACAGCGUGGCAAAGUGGCUGUGGCUCGACCGCC [G2C G7C A39C U43C] the self-cleavage was 0.21. GGCGGAGCGCAACACAGCGUGGCAAAGUGGCUGUGGCUAGACUCCC [A4G U9G G44C] showed a self-cleavage of 0.04. Variant GGAAGAGCUCAACACAGCGUGGCAAAGUGGGUGUGGCUAUACUGUC [C3A C31G G40U C45U] has a self-cleavage of 0.13. For GGCAGAGCUCAACCCAGCGUGGGAAAGUGGCUGUGGCUUGACUGCC [A14C C23G A39U], the self-cleavage was 0.6. Variant GGCAGAGCUCAACACAGCGUGGCAAAGUGGCCCUGGCUAGACUGGC [U32C G33C C45G] has a self-cleavage of 0.01. GGCAGAGGUCAAGACAGCGUGGCAAAGUGGCUGUGGCUAGCCUGCU [C8G C13G A41C C46U] gave a self-cleavage of 0. Work on UGCAAAGUGCAACUCAGCGUGACAAAGUGGCUGUGGCUAGACUGCA [G1U G5A C8U U9G A14U G22A C46A] yielded a self-cleavage of 0.07. GACAGAGCUCAAUACAUCGUGGCAAAGUGGCUGUGGCUAGACUGCC [G2A C13U G17U] showed a self-cleavage of 0.24. Work on GCCAGGGUUCAACACAGCGUGGCAAGGUGGCUGUGUCUAGACUGCC [G2C A6G C8U A26G G36U] yielded a self-cleavage of 0.01. With UCCAGAGCUCAACACAGCGUGGCAAACUGGCUGUGGUUGGACUGCC [G1U G2C G27C C37U A39G] the self-cleavage was 0.01. For GGCAGAGCGCAACACAGAGUGACAAAGUGGCUGUGGCUAGACUGCC [U9G C18A G22A], the self-cleavage was 0.06. In the case of GGGAGAGCUCAACUCAGCGUGGCAAAGUGGUUGUGGCUAGACUGCC [C3G A14U C31U], the self-cleavage is reported as 0.02. GGCGGAGCUCAACACAGCGUCGCAAAUCGUCAGUGGCUAGACUGCC [A4G G21C G27U U28C G30U U32A] gave a self-cleavage of 0.05. GGCAGAGCUCAACACAGCGUGGCAAAGUGGCUGUGCCUAGUCGGCC [G36C A41U U43G] gave a self-cleavage of 0.08. Variant GUCAUAGCUCAACACAGCGUGGGAAAGUGGCUGUGGCGAGGCUGCC [G2U G5U C23G U38G A41G] has a self-cleavage of 0.07. GGCAGAGCUCAACACAGCGUUGCAAAGUGGCUGUGGCUGGAAUGCC [G21U A39G C42A] showed a self-cleavage of 0.01. For GGCAGAGCUCAACACAGCGUGGCACAUUGGCUGUGGCUAGACUUCC [A25C G27U G44U], the self-cleavage was 0.13. Work on GUCAGAGCUCAACACACCGUGGAAAAGUGGCUGUGGCUAGACUGCC [G2U G17C C23A] yielded a self-cleavage of 0.01. Variant GGCAGAGCUCAAGACAGCGUUGCAAAGUGGCUGUGCCUAGACUGCC [C13G G21U G36C] has a self-cleavage of 0.02. With GGAAGAGCUCACCACAGCGUGGCAAAGUGGAUGUGGCUUGAGUGCC [C3A A12C C31A A39U C42G] the self-cleavage was 0.01. Work on GGCAGAGCUCAAUACAGCGUGGCAACGUGGCUGUGGCAAGACUGCC [C13U A26C U38A] yielded a self-cleavage of 0.21. GGCAGAGCUCAACACAGCGUGGCUAAGUGUCUGUCGCCAGAUUGCC [A24U G30U G35C U38C C42U] showed a self-cleavage of 0.06. Variant GGAAGAGCUCAACACAACGUGGCGGAGUGGCUGUCACUAGACUGCC [C3A G17A A24G A25G G35C G36A] has a self-cleavage of 0.22. With GGCAUAGCUCAACACAGCGCGGCAAAGUGGCUUUGGCUAGACUGCC [G5U U20C G33U] the self-cleavage was 0.05. With GGCAGGUCUCAAUACAGCGUGGCAAAGUUGCUGUGGCUAGACUGCC [A6G G7U C13U G29U] the self-cleavage was 0.08. GGCAGAGCUCAACGCAGCGUGGCAAAGUGGGUGUGGCUAGAAUGCC [A14G C31G C42A] gave a self-cleavage of 0. Variant GGGAGAGCUCAACACAGCGUGGCAAAGUGGCGGUCGCUAGACUGCC [C3G U32G G35C] has a self-cleavage of 0.17. With GGCAGAACUCAACACAGCGUGGCAAAGUACCUGUGGCAAGACUGCC [G7A G29A G30C U38A] the self-cleavage was 0.06. GGCGGAGCUCAAAACAGCGUGGCAAAGUGUCUGUGGCUAGAGUGCC [A4G C13A G30U C42G] gave a self-cleavage of 0.04. Variant GGAAGAGCUCAAUACAGCGUGGCAAAGUGGCUGGGGUUAGACUGCC [C3A C13U U34G C37U] has a self-cleavage of 0.13. GGCAGAGCUCAACCCAGCGUGGCAAUGUGGUUGUGGCUAGACUGCU [A14C A26U C31U C46U] showed a self-cleavage of 0.02. In the case of UGCAAAGCUCACCACAGCGUGGCAAAGUGUCUGUGGCUAGACUGCC [G1U G5A A12C G30U], the self-cleavage is reported as 0.04. GGCAGAGCUCAAUACAGCGGGGCAAAGUGGCUGUGGCUAGACUGCG [C13U U20G C46G] showed a self-cleavage of 0.05. AGCAGCCCUCAACACAGCGUGGACAAGUGGCUGUGGCUAGACUGCC [G1A A6C G7C C23A A24C] showed a self-cleavage of 0.14. In the case of GGGAUAGCUCAACACAGCGUGGCAGAGUGGAUGUGGCUAGACUGGC [C3G G5U A25G C31A C45G], the self-cleavage is reported as 0.09. GGCACAGCUCAACACAGCGUGGCAAUGUGGCUGUGGCUAGCCUGCC [G5C A26U A41C] showed a self-cleavage of 0.02. Variant AGCAGAGCUCACCACAGCGUUGCAGAGUGGCUGUGGCUAGACUGAC [G1A A12C G21U A25G C45A] has a self-cleavage of 0.01. With GGGAGAGCUCAACACUGCGUGGCAAAGUGGCUGUGGCUAGACUACC [C3G A16U G44A] the self-cleavage was 0.06.
